Laboratory results as given in the supplement of paper PMC3334620.
Over roughly 33,000 sequences, “E-score (-0.5 to 0.5)” has its median near -0.012; the highest 2% begin near 0.29. The list shows a part of the results.

These sequences were tested against T1, Ybr033w (UniProt P38073) (assay: PBM E-score (8-mer binding enrichment) (E-score (-0.5 to 0.5)); higher = stronger / more preferred TF binding; most listed sequences are background and not binding sites). Conditions: protein concentration: 200 nM; construct: GST-full length.
T1 sequence: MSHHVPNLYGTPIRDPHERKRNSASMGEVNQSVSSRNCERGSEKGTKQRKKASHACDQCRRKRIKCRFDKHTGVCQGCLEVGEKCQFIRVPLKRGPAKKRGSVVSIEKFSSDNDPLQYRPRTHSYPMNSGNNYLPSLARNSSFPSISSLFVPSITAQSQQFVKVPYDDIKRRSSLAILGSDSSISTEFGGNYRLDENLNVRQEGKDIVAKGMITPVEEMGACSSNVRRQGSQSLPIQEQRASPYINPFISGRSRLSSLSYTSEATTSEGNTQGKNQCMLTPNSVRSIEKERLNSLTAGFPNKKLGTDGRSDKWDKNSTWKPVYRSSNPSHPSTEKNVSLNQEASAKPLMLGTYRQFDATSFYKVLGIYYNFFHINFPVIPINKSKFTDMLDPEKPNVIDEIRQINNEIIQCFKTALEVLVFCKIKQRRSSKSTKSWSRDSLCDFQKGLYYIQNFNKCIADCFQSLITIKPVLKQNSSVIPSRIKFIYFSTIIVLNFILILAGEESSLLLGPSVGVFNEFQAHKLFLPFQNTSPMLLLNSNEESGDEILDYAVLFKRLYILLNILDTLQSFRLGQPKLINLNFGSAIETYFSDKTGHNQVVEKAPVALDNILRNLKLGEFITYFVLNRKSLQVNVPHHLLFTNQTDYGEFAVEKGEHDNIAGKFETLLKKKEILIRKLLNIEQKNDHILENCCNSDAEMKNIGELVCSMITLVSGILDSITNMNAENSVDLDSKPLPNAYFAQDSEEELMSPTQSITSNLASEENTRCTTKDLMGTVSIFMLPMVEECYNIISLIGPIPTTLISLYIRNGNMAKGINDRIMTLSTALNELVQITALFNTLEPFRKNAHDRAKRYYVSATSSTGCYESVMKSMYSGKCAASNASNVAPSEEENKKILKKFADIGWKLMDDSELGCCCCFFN
Outline: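 Using PURExpress in vitro transcription/translation, GST-tagged yeast transcription factors were made in full-length or DNA-binding-domain form. These were applied at about 100-200 nM to double-stranded universal all-10-mer Agilent arrays, and bound protein was detected with fluorescent anti-GST. Scans were normalised with masliner before the Universal PBM Analysis Suite assigned E-scores to ungapped eight-base words pooled with their reverse complements.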

Sequence | PBM E-score
ATACGCTA | -0.0114
ATTATGTA | 0.312
ATCTTAGA | 0.131
ACGAGCGA | 0.0677
GACTACAA | -0.0544
GAATGGCA | 0.00237
CAGGAGGA | -0.183
ATCTCGAC | 0.0863
CGCAGATA | 0.0345
GTATCTAA | 0.253
GGCAACAC | -0.0993
ACAAAAAC | 0.243
GAACATAC | 0.276
TAACGAAA | 0.257
AGGCAGTA | -0.0626
TCCGTACA | 0.0794
AGTCGTTA | 0.0146
CGTCCCCC | -0.402
ACGGTGTA | -0.0998
ATAATCGG | 0.162
GCGGAAAC | -0.191
ATCTGATG | -0.0196
CCTTGTTA | 0.127
ATACCATC | 0.136
ACTCCTCG | 0.0923

Sequence | PBM E-score
GAGCGATA | -0.0461
ACAGTGCG | -0.157
GCGCACAA | -0.0152
AAGAATAT | 0.149
CTAGTTGC | -0.117
CGACCTTC | -0.00154
AGGCCTTC | -0.0617
ACCTGAGT | 0.0248
AGATACAG | 0.22
ACTGGCAG | -0.116
GATCTCGA | -0.0286
GCATGTGA | -0.0841
GTCGCATA | 0.214
ATGGGTCG | -0.217
GACATGCA | -0.0594
CGACAGCA | -0.108
ATCGGCCC | -0.227
CCTCACTA | -0.133
AAACAGAA | 0.253
TATTAGGA | 0.192
CTTCCAGA | 0.0173
AATTCCAA | 0.261
CGGCGTAA | 0.118
CTCATACA | 0.0922
GCTCCTAA | -0.159

Sequence | PBM E-score
AGGATCCC | -0.0813
GTCGGAAC | 0.117
GCTCAGAA | 0.00445
GCAACTGA | 0.0264
GGTCAAAC | 0.0635
CCCTCGCA | -0.206
GGGATAAA | 0.317
ACACGCAG | -0.0983
ACTTTAAG | 0.181
CCTTTTGC | -0.0725
GCATCCGC | -0.142
ACGCCTGC | -0.314
ACCTTACA | 0.0943
CCGCACGC | -0.19
ATAGTGCC | -0.0424
GGAGATAA | 0.128
CCCTTGTC | -0.24
CCTTTAAA | 0.0546
ACGTAAAA | 0.243
GCGACGAA | 0.0863
AAGCAATG | 0.172
TAAGGCTA | -0.134
AAGAGATT | 0.124
AACTGACG | -0.161
CCGTTCGC | -0.231

Sequence | PBM E-score
AAGCAACC | 0.0073
ACACCCTA | 0.161
CACATAAC | -0.012
CCGCAGCC | -0.206
AGTTGAAG | 0.0872
GGTTACTA | -0.133
AACACATC | 0.227
AGAGCGCT | -0.00506
ATCCGACG | 0.0218
AGGACGAT | 0.0296
GGACGGTA | 0.0723
CGCGCATA | -0.0624
CACGCGAC | -0.178
AGGAACCG | 0.0252
ATCGGAAT | 0.26
GCCTGTCA | -0.195
ACATAAGG | 0.142
CCTCTGGA | -0.0743
CTCCTTAA | 0.0773
GGCTGGAC | -0.17
AGTCACTG | -0.263
ATTTAAAC | 0.18
ATATGTCG | 0.115
ACGAACTC | 0.0499
CGTGTTCA | 0.0511

Sequence | PBM E-score
GGTGGTGA | -0.03
AATATACA | 0.316
TAACCTTA | -0.0618
ACGCTAAT | -0.063
ATCTCAAT | 0.189
ACAGTGCT | 0.114
CAGGACGG | -0.177
CGCTCGCC | -0.143
CTCCGCGA | -0.127
AGTCTCCA | -0.0529
GGTGTGTA | -0.18
CTGTATTC | 0.0612
GCTCAAGA | -0.177
CCATTGCC | -0.0753
CCGAATCC | 0.0777
CCGATGAG | -0.179
CGGCCAAG | -0.131
GGGTAGAC | -0.154
CTAGTCAA | 0.00957
ACCATGAT | 0.0215
TTGGCAAA | 0.0817
TAATGGCA | 0.121
CTCTTGCA | -0.143
ACCTTGAC | -0.0921
ACATCCTC | -0.0212

Sequence | PBM E-score
ATCTCACC | 0.144
AAAGCGCC | -0.253
AGATAATA | 0.219
AAATGAAT | 0.0218
CGTTCCTA | -0.0409
AAACGTGG | -0.195
AGAGAAAT | 0.0817
GAGGTGCA | 0.0162
CGACTATA | 0.0115
ACACACGA | 0.0544
AGCCCTAA | -0.233
CTATCCAC | 0.0657
ACTGGATC | 0.131
CAGATCAG | -0.106
CGCCACTC | -0.183
ATACTGCA | 0.201
CTCTTAAA | 0.0832
AGATCCCC | -0.0356
CCTAATCA | 0.116
AGGATAGA | 0.0657
CTTATATC | 0.146
AGCCCATG | -0.0321
AGTCTCGG | -0.172
ATGGCATA | 0.141
ATGTCCCC | -0.154

Sequence | PBM E-score
AGTCCCCC | -0.359
AGAAGAAT | -0.0182
CACTCACC | 0.0034
AAGGCTCT | -0.0483
ATTACTTC | 0.0935
CCTTTGGA | -0.205
TAGCAGAA | 0.0828
ATTTAGCA | 0.275
AGGATGAG | -0.134
TTCGAAAA | 0.153
AGGGAGAC | -0.272
CCTCTGGC | -0.124
ACGTGGAA | -0.0312
AAGTAGTA | 0.125
ATACTCCC | -0.0125
CGCGAATC | 0.00606
ACCAAGAA | 0.103
GTGCTACA | -0.111
CTTGGCCC | -0.288
GGATCCCC | -0.322
CATCTGCA | -0.024
AGCTTGTG | -0.144
